Test results published in publication PMC3349548.
Changes are numbered by the printed parent chain. These are yes or no findings as the source states them, for the method shown. In cells and extracts the contact can be indirect. Some results given as binding are weak or reduced against the parent protein; the word gives no strength. For some assays here: Where a sequence is shown, tags or fusion partners need not be part of it. Each block holds one substance with its values, some of them ahead of it.

Chains of the proteins cited; added tags and fusions are not shown. Lines headed by an entry give the natural chain unless they say otherwise; changes in a name come on top.
UniProt Q9D4H8: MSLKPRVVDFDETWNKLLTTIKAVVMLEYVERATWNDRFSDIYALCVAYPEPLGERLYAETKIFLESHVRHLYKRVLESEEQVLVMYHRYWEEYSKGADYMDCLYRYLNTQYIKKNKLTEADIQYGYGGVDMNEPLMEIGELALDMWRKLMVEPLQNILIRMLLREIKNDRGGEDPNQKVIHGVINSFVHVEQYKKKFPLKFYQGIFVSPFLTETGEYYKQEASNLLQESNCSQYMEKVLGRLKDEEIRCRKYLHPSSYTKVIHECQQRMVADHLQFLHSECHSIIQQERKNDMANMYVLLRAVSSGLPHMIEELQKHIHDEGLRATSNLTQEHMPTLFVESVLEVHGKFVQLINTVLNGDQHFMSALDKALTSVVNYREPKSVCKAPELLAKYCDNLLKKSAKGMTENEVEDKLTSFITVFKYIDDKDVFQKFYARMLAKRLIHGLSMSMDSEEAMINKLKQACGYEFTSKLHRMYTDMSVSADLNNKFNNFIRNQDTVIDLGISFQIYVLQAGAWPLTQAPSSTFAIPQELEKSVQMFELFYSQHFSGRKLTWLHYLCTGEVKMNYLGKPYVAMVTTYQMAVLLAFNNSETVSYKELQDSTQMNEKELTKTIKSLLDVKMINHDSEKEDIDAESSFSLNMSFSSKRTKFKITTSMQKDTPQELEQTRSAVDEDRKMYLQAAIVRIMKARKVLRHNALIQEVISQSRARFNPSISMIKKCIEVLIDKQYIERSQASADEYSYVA
UniProt Q13619: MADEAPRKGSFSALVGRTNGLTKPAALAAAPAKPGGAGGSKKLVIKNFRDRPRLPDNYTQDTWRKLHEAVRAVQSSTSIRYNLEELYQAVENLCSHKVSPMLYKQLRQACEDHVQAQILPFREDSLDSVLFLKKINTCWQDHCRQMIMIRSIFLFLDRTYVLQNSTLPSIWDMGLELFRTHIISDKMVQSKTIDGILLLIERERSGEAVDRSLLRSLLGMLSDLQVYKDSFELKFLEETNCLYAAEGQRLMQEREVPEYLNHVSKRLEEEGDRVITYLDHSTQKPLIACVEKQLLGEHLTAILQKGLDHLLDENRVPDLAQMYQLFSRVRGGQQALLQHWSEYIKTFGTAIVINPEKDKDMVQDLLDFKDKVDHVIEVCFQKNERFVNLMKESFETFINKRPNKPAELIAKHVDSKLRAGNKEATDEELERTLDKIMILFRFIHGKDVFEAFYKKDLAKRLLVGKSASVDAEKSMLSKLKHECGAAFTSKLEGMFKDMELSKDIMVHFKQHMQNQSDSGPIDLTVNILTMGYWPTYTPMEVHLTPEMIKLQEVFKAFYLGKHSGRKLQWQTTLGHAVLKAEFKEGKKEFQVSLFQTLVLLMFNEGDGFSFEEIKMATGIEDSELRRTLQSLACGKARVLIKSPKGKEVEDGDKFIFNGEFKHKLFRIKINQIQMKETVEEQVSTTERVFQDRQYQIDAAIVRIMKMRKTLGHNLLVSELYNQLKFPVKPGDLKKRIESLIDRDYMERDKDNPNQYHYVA
UniProt P40337: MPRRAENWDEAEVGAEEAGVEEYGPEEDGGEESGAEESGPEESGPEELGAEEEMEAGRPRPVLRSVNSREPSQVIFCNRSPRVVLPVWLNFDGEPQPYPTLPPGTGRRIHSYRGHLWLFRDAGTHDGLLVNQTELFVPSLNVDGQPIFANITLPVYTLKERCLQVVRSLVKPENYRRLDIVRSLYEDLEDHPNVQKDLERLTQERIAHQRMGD

Key:
[1] = biological target: T1, Flag-UBXN7 (wild-type), expressed in A31N-ts20 mouse embryo fibroblasts (human) (UniProt O94888); assay: co-IP; Flag-UBXN7 immunoprecipitated from A31N-ts20 cells (thermo-sensitive for the ubiquitin-E1) grown at 35°C or at the restrictive temperature (39°C) for 20 hours
T1 sequence: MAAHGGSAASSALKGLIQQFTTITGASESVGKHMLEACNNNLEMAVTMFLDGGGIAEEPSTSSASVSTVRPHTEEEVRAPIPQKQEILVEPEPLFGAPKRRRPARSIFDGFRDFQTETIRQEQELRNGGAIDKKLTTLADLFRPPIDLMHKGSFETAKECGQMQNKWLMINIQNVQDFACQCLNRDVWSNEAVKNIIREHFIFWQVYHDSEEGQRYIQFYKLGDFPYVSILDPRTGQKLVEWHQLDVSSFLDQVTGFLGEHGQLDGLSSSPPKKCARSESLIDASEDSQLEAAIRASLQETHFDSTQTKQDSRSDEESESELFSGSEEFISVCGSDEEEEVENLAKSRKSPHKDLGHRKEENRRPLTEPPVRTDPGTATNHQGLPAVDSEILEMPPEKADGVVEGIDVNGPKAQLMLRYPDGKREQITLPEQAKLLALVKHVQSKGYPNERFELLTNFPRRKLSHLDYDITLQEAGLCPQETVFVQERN

[2] = biological target: T2, Flag-UBXN7 (wild-type), expressed in HeLa cells (human) (UniProt O94888); assay: condition: only cells treated with 1 μM MLN4924 for two hours; co-IP; as a1, Flag-UBXN7 immunoprecipitated from HeLa cells treated with 1 μM MLN4924 for two hours (alone or together with 10 μM MG132)
T2 sequence: T1 sequence

[3] = biological target: T2, Flag-UBXN7 (wild-type), expressed in HeLa cells (human); assay: co-IP; Flag-tagged bait immunoprecipitated with anti-Flag beads from transfected HeLa cell extracts (buffer A: 50 mM HEPES/KOH pH 7.2, 5 mM Mg(OAc)2, 70 mM KOAc, 0.2% Triton X-100, 10% glycerol, 0.2 mM EDTA); endogenous partners detected by western blot; cells treated or not with 10 μM MG132 and/or 1 μM MLN4924 for two hours
[4] = biological target: T2, Flag-UBXN7 (wild-type), expressed in HeLa cells (human); assay: co-IP; as a1, Flag-UBXN7 immunoprecipitated from HeLa cells not treated with MG132
[5] = biological target: T3, endogenous UBXN7 (human (endogenous in HeLa)) (UniProt O94888); assay: co-IP; as a4, endogenous UBXN7 immunoprecipitated from HeLa cells not treated with MG132
T3 sequence: T1 sequence

[6] = biological target: T3, endogenous UBXN7 (human (endogenous in HeLa)); assay: co-IP; endogenous UBXN7 immunoprecipitated from HeLa cell extracts (buffer A) with anti-UBXN7 antibodies crosslinked to Protein A-agarose; cells treated or not with 10 μM MG132 for two hours
[7] = biological target: T4, Flag-UBXN7 P459G, expressed in HeLa cells (human) (UniProt O94888); assay: co-IP; Flag-tagged bait immunoprecipitated with anti-Flag beads from transfected HeLa cell extracts (buffer A: 50 mM HEPES/KOH pH 7.2, 5 mM Mg(OAc)2, 70 mM KOAc, 0.2% Triton X-100, 10% glycerol, 0.2 mM EDTA); endogenous partners detected by western blot; cells treated or not with 10 μM MG132 and/or 1 μM MLN4924 for two hours
T4 sequence: T1 sequence with P459G

[8] = biological target: T5, Flag-UBXN7 S297A, expressed in HeLa cells (human) (UniProt O94888); assay: as above
T5 sequence: T1 sequence with S297A

[9] = biological target: T6, Flag-UBXN7 S297H, expressed in HeLa cells (human) (UniProt O94888); assay: as above
T6 sequence: T1 sequence with S297H

binding [1]: binds
Substance: endogenous CUL2 (A31N-ts20 mouse embryo fibroblasts) (from UniProt Q9D4H8 1-745)

binding [2]: no binding
binding [3]: binds
Substance: endogenous CUL4A (HeLa) (from UniProt Q13619 1-759)

binding [6]: binds
binding [3]: binds
Substance: endogenous VHL (HeLa) (from UniProt P40337 1-213)
binding [4]: no binding (condition: cells not treated with MG132)
binding [5]: no binding (condition: cells not treated with MG132)

binding [3]: binds
binding [7]: no binding
binding [8]: binds
binding [9]: binds
Substance: endogenous p97 (HeLa) (from UniProt P55072 1-806)
